{
  "source": "PubChem BioAssay AID624418",
  "about": "(National Center for Advancing Translational Sciences (NCATS), 2012)",
  "note": "The whole screen tested about 410,000 compounds, of which about 530 (0.13%) were called active. This list was built around the results that the source calls inconclusive (neither active nor inactive); the mix of calls is not that of the screen. Calls come from the whole dose curve; as a rule, active = well fitted inhibition curve with a large enough effect; inconclusive = small, poorly fitted or top-dose-only effect, or another doubt; inactive = no such curve, though single readings can be large or run the other way. Potencies beside an inconclusive call are fits to weak or partial responses and may not hold up. % is set by controls: 0 for no effect and ±100 for the full control effect; potency is the fitted concentration of half-maximal effect.",
  "data": [
    {"test": "qHTS of GLP-1 Receptor Inverse Agonists: Cytotox Screen", "details": "HEK293 cAMP-luciferase reporter cells, luminescence, 24 h; activity change, negative = inhibition: at 38.3 µM (top of the series) unless noted", "method_in_brief": "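1536-well qHTS counterscreen of the MLSMR; 200 cells/uL, 12 h pre-incubation, 23 nL cpd, 24 h at 37 deg C 5% CO2, luciferase detection reagent, 12 min RT, luminescence. Inhibition = undesired.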", "values": [
      {"smiles": "Cc1nn(C)cc1CN(C)Cc1ccc(OCC(O)CN2CCCCC2)cc1", "note": "(stereo not drawn)", "Potency": "inconclusive: 1.78 µM [inhibitor, partial curve, poor fit]"},
      {"smiles": "CC(C)c1ccc(NC(=O)c2cc(S(=O)(=O)N3CCCCC3)cn2C)cc1", "Potency": "inactive"},
      {"smiles": "COc1ccccc1CNc1nc2ccc(Cl)cc2n2cnnc12", "Potency": "inactive"},
      {"smiles": "CCOC(=O)C1CCN(CC(O)COc2ccc(C(C)(C)C)cc2)CC1", "note": "(stereo not drawn)", "Potency": "inconclusive: 11.2 µM [inhibitor, partial curve, poor fit]"},
      {"smiles": "CC1=NN(c2ccc(C)c(C)c2)C(=O)C1C(c1cccc(O)c1)C1C(=O)N(c2ccc(C)c(C)c2)N=C1C", "note": "(stereo not drawn)", "Potency": "inconclusive: 28.2 µM [inhibitor, single point]"},
      {"smiles": "CCn1c(SCC(=O)Nc2cccc(F)c2)nnc1-c1cc2cc(Br)ccc2o1", "Potency": "inconclusive: 12.6 µM [inhibitor, single point]"},
      {"smiles": "COc1ccc(CN2CCN(Cc3ccccc3C(F)(F)F)CC2)c(OC)c1", "activity change, negative = inhibition": "inconclusive: -39.9% [inhibitor]"},
      {"smiles": "COc1ccc(C(=O)N2N=C(c3ccc(NS(C)(=O)=O)cc3)CC2c2cccs2)cc1", "note": "(stereo not drawn)", "Potency": "inactive"},
      {"smiles": "O=C(CCCn1c(=O)c2ccccc2n(CC(=O)Nc2cccc(C(F)(F)F)c2)c1=O)NCc1ccc2c(c1)OCO2", "Potency": "inactive"},
      {"smiles": "CCCN1CCN(c2cc3c(cc2F)c(=O)c(S(=O)(=O)c2ccc(Cl)cc2)cn3C)CC1", "Potency": "inconclusive: 20 µM [inhibitor, single point]"},
      {"smiles": "CCOC(=O)c1ccc(N2C(=O)c3n[nH]c(-c4ccco4)c3C2c2ccc([N+](=O)[O-])cc2)cc1", "note": "(stereo not drawn)", "Potency": "inconclusive: 11.2 µM [inhibitor, partial curve, poor fit]"},
      {"smiles": "CCOc1ncccc1C(=O)Nc1ccc2nc(C)sc2c1", "Potency": "inconclusive: 5.01 µM [inhibitor, full curve]"},
      {"smiles": "Cc1ccc(NC(=O)OC(C)N2CCCCC2)cc1NC(=O)OC(C)N1CCCCC1", "note": "(stereo not drawn)", "Potency": "inconclusive: 5.01 µM [inhibitor, full curve]"},
      {"smiles": "CS/C(=N\\S(=O)(=O)c1cccs1)Nc1ccc(F)c(Cl)c1", "Potency": "inactive"},
      {"smiles": "CN(C(=S)Nc1ccc(SC(F)F)cc1)C(c1ccccc1)c1ccccc1", "Potency": "inactive"},
      {"smiles": "COc1ccc(Nc2c3c(nc4ccc(NC(=O)/C=C/c5cccc(OC)c5OC)cc24)CCCC3)cc1OC", "Potency": "inconclusive: 14.1 µM [inhibitor, single point]"},
      {"smiles": "S=C1NCCc2ccccc2C1c1ccccc1Cl", "note": "(stereo not drawn)", "Potency": "inconclusive: 22.4 µM [inhibitor, single point]"},
      {"smiles": "O=C(CSc1cccc[n+]1[O-])c1ccc(Cl)cc1", "Potency": "inconclusive: 7.08 µM [inhibitor, partial curve]"},
      {"smiles": "Cc1cc(NC(=O)CC2CCCC2)n(-c2nc3ccccc3[nH]2)n1", "Potency": "inconclusive: 14.1 µM [inhibitor, single point]"},
      {"smiles": "O=C(CSc1nnc(CCc2ccccc2)n1-c1ccc(Cl)cc1)NCc1ccccc1", "Potency": "inconclusive: 14.1 µM [inhibitor, single point]"},
      {"smiles": "CC(=O)c1sc(NC(=O)c2ccc(F)cc2)nc1-c1ccccc1", "Potency": "inactive"},
      {"smiles": "CCOc1ccccc1NC(=S)Nc1ncccc1C", "Potency": "inconclusive: 12.6 µM [inhibitor, single point]"},
      {"smiles": "O=C(NC(=S)N1CCCC(C(F)(F)F)C1)c1ccc(F)cc1", "note": "(stereo not drawn)", "Potency": "inconclusive: 5.01 µM [inhibitor, full curve, poor fit]"},
      {"smiles": "Cc1cc(N2CCN(c3cccc(C)c3C)CC2)n2nc(C)c(-c3ccc(Cl)cc3)c2n1", "Potency": "inactive"},
      {"smiles": "O=C(CCl)Nc1cccc(S(=O)(=O)NC2=NCCCCC2)c1", "Potency": "active: 11.2 µM"},
      {"smiles": "O=C(NN1C(=O)C2C3C=CC(O3)C2C1=O)c1cccc(Br)c1", "note": "(stereo not drawn)", "Potency": "inactive"},
      {"smiles": "CCN(CC)S(=O)(=O)c1ccc(N2CCc3ccccc3C2)nc1", "Potency": "inactive"},
      {"smiles": "O=C(N/N=C/c1ccc([N+](=O)[O-])o1)c1ccc(O)cc1", "Potency": "inconclusive: 31.6 µM [inhibitor, single point]"},
      {"smiles": "O=C(NC(=S)Nc1cc([N+](=O)[O-])ccc1O)c1ccc2c(c1)OCO2", "Potency": "inconclusive: 3.16 µM [inhibitor, full curve, poor fit]"},
      {"smiles": "CCc1noc(C)c1C(=O)Nc1ccc(C(F)(F)F)cc1", "Potency": "inconclusive: 28.2 µM [inhibitor, single point]"},
      {"smiles": "Clc1ccccc1-c1nnc(-c2ccccc2CNc2ccc(Br)cc2)o1", "Potency": "inactive"},
      {"smiles": "COc1ccccc1/C=C/CN1CCN(Cc2ccc(F)cc2)C(CCO)C1", "note": "(stereo not drawn)", "Potency": "inconclusive: 28.2 µM [inhibitor, single point]"},
      {"smiles": "COc1cccc2c1C(=N)c1c(O)c3c(c(O)c1C2=O)CC(O)(C(C)=O)CC3OC1CC(N)C(O)C(C)O1", "note": "(stereo not drawn)", "Potency": "inconclusive: 2.82 µM [inhibitor, partial curve, poor fit]"},
      {"smiles": "O=C(CCCl)N1c2ccccc2C=Cc2ccccc21", "Potency": "inconclusive: 1.12 µM [inhibitor, partial curve, poor fit]"},
      {"smiles": "CCOc1ccc(-c2cn3ccccc3n2)cc1[N+](=O)[O-]", "Potency": "inactive"},
      {"smiles": "COc1cccc(NC(CNS(=O)(=O)c2ccc(Cl)cc2)c2ccccc2)c1", "note": "(stereo not drawn)", "Potency": "inconclusive: 14.1 µM [inhibitor, single point]"},
      {"smiles": "COCCNC(=O)c1c[nH]c2ccc(S(=O)(=O)N3CCOCC3)cc2c1=O", "Potency": "inactive"},
      {"smiles": "CCOC(=O)N1CCN(C(=O)CNC(=O)c2ccc(Br)o2)CC1", "Potency": "inactive"},
      {"smiles": "O=C(Nc1ccccc1)N(C1=NCCCCS1)c1cccc2ccccc12", "Potency": "inconclusive: 11.2 µM [inhibitor, partial curve, poor fit]"},
      {"smiles": "Cc1ccc(S(=O)(=O)Nc2cccc3cccnc23)cc1", "Potency": "inconclusive: 2.51 µM [inhibitor, partial curve, poor fit]"},
      {"smiles": "COc1ccc(Nc2cnn(-c3nc4ccccc4s3)c(=O)c2Cl)cc1", "Potency": "inconclusive: 22.4 µM [inhibitor, single point]"},
      {"smiles": "COc1ccc(N/N=C(\\C#N)C(=N)SCc2ccccc2)cc1", "Potency": "inconclusive: 10 µM [inhibitor, partial curve, poor fit]"},
      {"smiles": "O=C(c1ccncc1)N(c1ccc2oc3c(c2c1)CCCC3)S(=O)(=O)c1ccc(F)cc1", "Potency": "inconclusive: 4.47 µM [inhibitor, full curve, poor fit]"},
      {"smiles": "Cc1nc(-c2ccccn2)nc(N(C)c2ccccc2)c1Cl", "Potency": "inconclusive: 0.501 µM [inhibitor, full curve, poor fit]"},
      {"smiles": "COc1ccc(NC(=O)Nc2nnc(-c3ccccc3SCc3ccccc3)s2)cc1", "Potency": "inconclusive: 31.6 µM [inhibitor, single point]"},
      {"smiles": "Cc1c(C(=O)N(Cc2cccc(F)c2)C2CCS(=O)(=O)C2)oc2cc(Br)ccc12", "note": "(stereo not drawn)", "Potency": "inactive"},
      {"smiles": "CC(C)(C)NC(=S)N/N=C/c1c(Cl)cccc1Cl", "Potency": "inconclusive: 2 µM [inhibitor, full curve, poor fit]"},
      {"smiles": "S=C1NC2=C(CCCC2=C2SCCS2)C(c2ccccc2)N1", "note": "(stereo not drawn)", "Potency": "inconclusive: 14.1 µM [inhibitor, single point]"},
      {"smiles": "CCOC(=O)c1cc(C)n(-c2ccccc2)c1C", "Potency": "inactive"},
      {"smiles": "COc1ccnc(Oc2ccc(C)cc2C)c1C#N", "Potency": "inconclusive: 10 µM [inhibitor, partial curve]"},
      {"smiles": "CC(C)c1ccc(C2CC(c3ccc(Br)cc3)=NN2C(N)=S)cc1", "note": "(stereo not drawn)", "Potency": "inconclusive: 5.01 µM [inhibitor, full curve]"},
      {"smiles": "CC(=O)Nc1cccc(NC(=O)C(=O)c2cn(CC(=O)N3CCCCC3)c3ccccc23)c1", "Potency": "inconclusive: 10 µM [inhibitor, partial curve, poor fit]"},
      {"smiles": "COc1ccc(/C=N/Nc2nc(-c3cccnc3)nc3ccccc23)c(OC)c1", "Potency": "inconclusive: 28.2 µM [inhibitor, single point]"},
      {"smiles": "NS(=O)(=O)c1ccc(CCNc2ccn3nc(-c4cccc(C(F)(F)F)c4)cc3n2)cc1", "Potency": "inactive"},
      {"smiles": "Cc1cccc2sc(N(CCCN(C)C)C(=O)c3ccc(C(=O)c4ccccc4)cc3)nc12", "Potency": "inconclusive: 12.6 µM [inhibitor, single point]"},
      {"smiles": "CN(C)S(=O)(=O)Oc1ccsc1C(=O)Nc1cccc(Cl)c1", "Potency": "inactive"},
      {"smiles": "Cn1c(-c2c(N)n(C3CCCC3)c3nc4ccccc4nc23)nc2ccccc21", "Potency": "inactive"},
      {"smiles": "COc1ccc2c(c1)c(=O)oc1cc(OCC(=O)N3CCC(C)CC3)ccc12", "Potency": "inactive"},
      {"smiles": "CCCCCCCCCCOC(=O)Cn1c(COc2ccc(C)cc2)[n+](C)c2ccccc21", "Potency": "inconclusive: 10 µM [inhibitor, partial curve]"},
      {"smiles": "Cc1ccc(/C=C/c2ccc3cccc(O)c3n2)s1", "Potency": "inconclusive: 15.8 µM [inhibitor, single point]"},
      {"smiles": "Oc1ccc(N=Cc2sc3ccccc3c2Cl)cc1", "Potency": "inconclusive: 11.2 µM [inhibitor, single point]"},
      {"smiles": "CCN(CC)CCNc1nc2nonc2nc1NCCN(CC)CC", "Potency": "inconclusive: 28.2 µM [inhibitor, single point]"},
      {"smiles": "Oc1ccc(/C=N/NC(=S)N2CCOCC2)cc1", "Potency": "inconclusive: 1.58 µM [inhibitor, full curve, poor fit]"},
      {"smiles": "CC(=O)c1ccc(NC(=O)c2ccc(-c3ccc(Cl)cc3)o2)cc1", "Potency": "inactive"},
      {"smiles": "COc1ccccc1/C=C/C(=O)c1cc(Br)ccc1OC(=O)c1ccco1", "Potency": "inconclusive: 28.2 µM [inhibitor, single point]"},
      {"smiles": "CCOc1ccc(NC2OC(C)C(O)C(O)C2O)c([N+](=O)[O-])c1", "note": "(stereo not drawn)", "Potency": "inconclusive: 31.6 µM [inhibitor, single point]"},
      {"smiles": "CC1CCN(c2c(NCc3ccc(C(=O)N4c5ccccc5CC4C)cc3)c(=O)c2=O)CC1", "note": "(stereo not drawn)", "Potency": "inconclusive: 1 µM [inhibitor, full curve]"},
      {"smiles": "Cc1cc(C)nc(SCc2ccc(C(=O)N/N=C/c3cccc(O)c3O)cc2)n1", "Potency": "inconclusive: 15.8 µM [inhibitor, partial curve, poor fit]"}
    ]}
  ]
}
